Data reported in ChEMBL document CHEMBL1157539, “Thousands of chemical starting points for antimalarial lead identification” (Nature, 2010).
In all, about 13,000 compounds were measured (“IFI”: median about 4, highest 2% from about 17 on). Some of the results follow.

experiment: GSK_TCMDC: Inhibition Frequency Index (IFI). The number of non-kinase HTS assays where a compound showed > 50 % inhibition, expressed as a percentage of the number of such assays in which the compound was tested (-0 is zero); type: functional

| Compound | IFI |
| --- | --- |
| CCCCCCn1c2c(c(=N)c3c1CCC3)CCC2 | 3.57% |
| CCOC(=O)NCCSC(C)(C)[C@H](NC(=O)[C@H](Cc1cc2ccccc2s1)[C@H](CC)N(O)C=O)C(=O)Nc1nccs1 | 2.88% |
| Cc1cccc2nc(-c3ccc(-c4ccc(CN5CCN(C6CCN(C)CC6)CC5)cc4)cc3)[nH]c12 | 7.14% |
| CCCCN(C(=O)c1ccccc1Cl)c1nnc(-c2ccccc2C)s1 | 4.92% |
| CCc1cccc(C)c1-n1nc(-c2cc(C(C)(C)C)oc2C)cc1N | 7.02% |
| CC(CCc1ccccc1)NCC(O)c1ccc2c3c(cccc13)S(=O)(=O)N2C (stereo unspecified) | 3.52% |
| Oc1c(CNC2CCCCC2)cc(Cl)c2ccccc12 | 8.53% |
| N#Cc1ccccc1C(=O)N(Cc1cncn1Cc1cccc(F)c1)CC1CC1 | -0% |
| CC(C)N1CCN(c2ccc(OCCCCN3CCN(c4cccc(Cl)c4Cl)CC3)c(C(F)(F)F)c2)CC1 | 14.6% |
| CCNc1cc(C(=O)N[C@@H](Cc2ccccc2)[C@H](O)CNCCc2cccc3ccccc23)cc(N2CCCC2=O)c1 | 6.34% |
| O=C(/C=C/c1ccc(Cl)c(Cl)c1)NCCCCCN1CCCC(CNC(=O)c2sc3ccccc3c2Cl)C1 (stereo unspecified) | 6.11% |
| COc1ccc(NC(=O)[C@H](Cc2ccccc2)Nc2cc(C)nc(NCCc3cccnc3)n2)cc1 | 2.38% |
| COc1ccc(C2C(C(=O)Nc3cc(C)ccc3OC)c3ccccc3C(=O)N2C)cc1 (stereo unspecified) | 1.37% |
| O=C(/C=C/c1ccc(Cl)c(Cl)c1)NCCCCCN1CCCN(C(=O)Nc2cccc(C(F)(F)F)c2)CC1 | 8.61% |
| CCCCCOc1ccc(C=NNc2nc(O)cc(-c3ccccc3)n2)cc1 | 0% |
| O=C(Nc1cccc(-c2cccc(-c3nc4cc(C(F)(F)F)ccc4[nH]3)c2)c1)Nc1ccc(F)c(F)c1F | 9.71% |
| O=C(NCC1CC1)C1Cc2c([nH]c3ccc(Br)cc23)C2(CCN(CCc3ccccc3)CC2)N1 (stereo unspecified) | 5.59% |
| CS(=O)(=O)NCCCNCc1ccc(-c2ccc(-c3nc4cc(F)ccc4[nH]3)s2)cc1 | 1% |
| Cc1cccc2nc(-c3ccc(-c4ccc(NC(=O)NC5CC5c5ccccc5)cc4)cc3)[nH]c12 (stereo unspecified) | 6% |
| O=C(O)C1CC(=O)N(c2ccc(Cl)cc2)C1 (stereo unspecified) | 0.72% |
| O=C(CCc1c[nH]cn1)Nc1cccc(-c2ccc(-c3nc4ccccc4[nH]3)cc2)c1 | 5.26% |
| CN(CCS(C)(=O)=O)Cc1ccc(-c2ccc3ncnc(Nc4ccc(OCc5cccc(F)c5)c(Cl)c4)c3c2)o1 | 5.19% |
| COc1cc2nc(N(C)Cc3cc4c(Cl)cccc4s3)nc(N)c2cc1OC | 2.44% |

| Compound | IFI |
| --- | --- |
| COc1ccccc1CCNc1nc(C)cc(N[C@@H](CC(C)C)C(=O)NCc2cccc(F)c2)n1 | 4.88% |
| CNC(=O)c1cnc(Nc2ccc(OCC(O)CN(C)C)cc2)nc1Nc1cccc(OC)c1 (stereo unspecified) | 2.22% |
| O=C(NCCNc1ccnc(Nc2ccc(F)cc2)n1)Nc1ccc2c(c1)OCO2 | 1.54% |
| CSc1nnc2n(Cc3ccccc3)c(=O)c3c(n12)-c1ccccc1CC31CCCCC1 | 3.28% |
| Nc1nccc2ccc(-c3ccc(OCc4ccccc4)cc3)cc12 | 19.1% |
| CC(C)CCNCc1ccc(OCc2cccc(C(=O)Nc3ccccc3)c2)c(I)c1 | 10.9% |
| O=C(CN1CCC2(CCC1=O)CC(=O)c1ccccc1O2)NCCN1CCOCC1 (stereo unspecified) | 0% |
| O=C(Nc1cccc(-c2csc(-c3nc4ccccc4[nH]3)c2)c1)c1ccoc1 | 2.75% |
| Nc1ncnc2cc(-c3cccc(S(N)(=O)=O)c3)sc12 | 2.11% |
| Cc1cccc(Cl)c1S(=O)(=O)N1CCCCC(c2ccc(C(F)(F)F)cc2)=N1 | 2.92% |
| Fc1ccc2[nH]c(-c3ccccc3)nc2c1CN1CCC(N2CCCC2)CC1 | -0% |
| C[C@@H](N/C(=N\c1ccccc1Cl)Nc1ccc(C#N)cc1O)c1ccc(Br)cc1 | 1.46% |
| Cc1ccc(/C=C/C(=O)N2CCC(CCN3CCC(c4c[nH]c5ccccc45)CC3)CC2)cc1C | 11% |
| Cc1cc(N2CCCC2)nc(Nc2ccc(NC(=O)c3ccccc3F)cc2)n1 | 8.11% |
| Cc1cccc2nc(-c3ccc(-c4ccc(CNCCNC(=O)c5ccnn5C)cc4)s3)[nH]c12 | 8.91% |
| C(=N\Nc1nccc2sc(-c3cccnc3)cc12)/c1ccncc1 | 6.98% |
| CCCCN(CCCC)CCCCNc1c2ccccc2nc2ccccc12 | 2.21% |
| O=C(Cc1cccnc1)Nc1cccc(-c2cccc(-c3nc4cc(C(F)(F)F)ccc4[nH]3)c2)c1 | 16.7% |
| O=C(Nc1ccc(C(=O)OCC2CCCN3CCCCC23)cc1)c1ccc(Cl)c(Cl)c1 (stereo unspecified) | 1.52% |
| CN1CCC(NCc2cccc(-c3cccc(-c4nc5cc(C(F)(F)F)ccc5[nH]4)c3)c2)CC1 | 9.52% |
| Cc1ccc2c(c1)c(-c1ccccc1)c(-c1ccccc1)n2CC(O)CN1CCN(CC=Cc2ccccc2)CC1 (stereo unspecified) | 5.88% |
| O=C(/C=C/c1ccc(Cl)c(Cl)c1)NCCCCCN1CCC(NC(=O)c2ccc(F)cc2)CC1 | 6.35% |
| COc1ccccc1N1CCN(CCCCNC(=O)c2ccc(NC(=O)c3cc4ccccc4o3)cc2)CC1 | 1.56% |

| Compound | IFI |
| --- | --- |
| Oc1cc2c(cc1CN1CCN(Cc3ccc(Cl)s3)CC1)CCC2 | 5% |
| O=C(NC1CCCCC1)N(Cc1cccc(-c2cccc(CNC3CCCC3)c2)c1)C1CCN(Cc2ccccc2)CC1 | 5.84% |
| O=C(/C=C/c1ccc(-c2nc3cc(F)c(F)cc3[nH]2)cc1)NCc1ccc(Cl)c(Cl)c1 | 1.49% |
| Nc1c(-c2ccc(C(=O)NCCNCc3ccccc3)cc2)cnn1-c1ccc(C(F)(F)F)cc1 | 11.3% |
| CCOC(=O)N1CCN(CCCNc2c3ccccc3nc3ccccc23)CC1 | 0.76% |
| CCCC(C)NC[C@@H](O)[C@H](Cc1ccccc1)NC(=O)c1cc(NCC)cc(N2CCCCS2(=O)=O)c1 (stereo partly specified) | 2.9% |
| CCCCCCCN1CC[C@@H](CCCc2ccnc3ccc(OC)cc23)[C@@H](CCN)C1 | 6.52% |
| Cc1cc(C)c2c(c1)C(=NO)CCN2 | 3.57% |
| Oc1ccc(CCNc2nc(NCc3ccccc3Oc3ccc(C(F)(F)F)cc3)nc(N3CCNCC3)n2)cc1 | 20% |
| CN(Cc1ccccc1)C(=O)CCNS(=O)(=O)c1cc(Br)cnc1N | -0% |
| CCc1ccccc1N1CCN(CCCCNC(=O)c2ccc(NC(=O)c3ccc(Cl)cc3)cc2)CC1 | 1.77% |
| O=C(NCCN1CCCC1)c1ccc(-c2cccc(-c3nc4cc(F)ccc4[nH]3)c2)cc1 | 2.7% |
| c1ccc(Oc2ccc(Nc3ccnc4ccc(-c5ccco5)cc34)cc2)cc1 | 7.38% |
| O=C(Nc1ccc(Br)cc1)N1CCC(n2c(-c3ccccc3)nc3cccnc32)CC1 | 2.38% |
| NC(=O)c1cccc(CNC(=O)NC[C@H]2CN(Cc3ccc(Cl)c(Cl)c3)CCO2)c1 | 0.78% |
| COc1cc2c(cc1C(F)(F)F)N(C(=O)Nc1cc(-c3ccncc3)cc(-c3cccnc3)c1)CC2 | 5.34% |
| Cc1[nH]c2cc(F)ccc2c(=O)c1Cc1ccc(Cl)cc1.Cc1[nH]c2cccc(F)c2c(=O)c1Cc1ccc(Cl)cc1 | 1.96% |
| c1ccc(Oc2ccc(Nc3ccnc4cc(-c5ccc(CN6CCCCC6)o5)ccc34)cc2)nc1 | 7.86% |
| O=C(Nc1ccc(Cl)c(Cl)c1)Nc1ccc(F)c([N+](=O)[O-])c1 | 16.7% |
| O=C(NC1CC1)c1ccc(N2CCOc3ccc(Cl)cc32)s1 | 6.94% |
| CN1CCN(c2ccc(-c3cc(-c4cc(F)c(F)c(F)c4)cnc3N)cc2)CC1 | 11.5% |
| CN1CCCN(Cc2ccc(-c3cccc(NC(=O)c4cccc(Cl)c4)c3)cc2)CC1 | 3.85% |
| Cc1[nH]c(C)c(-c2ccc(-c3ccc(C#N)cc3)nc2)c(=O)c1Br | 0.92% |

| Compound | IFI |
| --- | --- |
| COc1cc(NC(=O)c2cc([N+](=O)[O-])ccc2NC(=O)CNC2CCCC(C)C2C)cc(OC)c1 (stereo unspecified) | 5.56% |
| c1ccc2[nH]c(-c3ccc(-c4ccc(CN5CCN(c6ccncc6)CC5)cc4)cc3)nc2c1 | 6.94% |
| c1ccc(CNCc2cccc(-c3csc(-c4nc5ccccc5[nH]4)c3)c2)cc1 | 4.76% |
| Cc1ccc(C)c(NC(=O)Nc2ccc(C)c(-c3ccc(C(=O)Nc4ccncc4)cc3)c2)c1 | 14.1% |
| O=C(Nc1cccc(-c2csc(-c3nc4ccccc4[nH]3)c2)c1)c1cc(=O)c2ccccc2[nH]1 | 0.93% |
| COc1c(C2CCN(CCCCNC(=O)c3cc(-c4ccc(Cl)cc4)[nH]c3C)CC2)ccc2c1CCCC2 | 12.4% |
| COc1ccc(-c2ccc(NC(=O)c3ccc(Cl)cc3)cc2)cc1CN1CCC(O)CC1 | 5.26% |
| Cc1cccc(-c2nc(Nc3ccncc3)c3cc(N(C)C)ccc3n2)n1 | 4% |
| O=[N+]([O-])c1ccc2nccnc2c1 | 1.44% |
| CCCC[C@H](NC(=O)O[C@H](COc1ccc(OCc2ccccc2)cc1)C(C)(C)C)C(=O)C(=O)Nc1cc[nH]n1 | 7.83% |
| Clc1cccc(Cl)c1CCNCC1CCN(CC2CCCCC2)CC1 | 6.52% |
| CN(C)CCNc1ncnc2c1[nH]c1ccc(Br)cc12 | 0.76% |
| O=C(Nc1ccc(Cl)c(Cl)c1)N(Cc1ccccc1Br)C1CCNCC1 | 3.73% |
| CN(C)CCNCc1cccc(-c2ccc3c(Nc4cc(O)c(Cl)cc4F)ccnc3c2)c1 | 3.68% |
| CC(C)(C)C1CCC(CC2=C(C(=O)O)c3ccccc3C2=O)CC1 (stereo unspecified) | 1.46% |
| O=C(CN1CCCCC1)Nc1ccc(Nc2nccc(NCC(O)c3ccccc3)n2)cc1 (stereo unspecified) | 4.12% |
| O=C(/C=C/c1ccc(Cl)c(Cl)c1)NCCCCCN1CCC(C(=O)Nc2ccc(F)c(Cl)c2)CC1 | 13.2% |
| Cc1nn(-c2ccnc3cc(Cl)ccc23)c(C)c1C(=O)NCc1cc(Cl)cc(Cl)c1 | -0% |
| Clc1cc2c(Nc3ccc(Oc4ccccc4)cc3)ccnc2cc1-c1ccc(CNCCN2CCOCC2)o1 | 3.76% |
| COc1ccc(C=NNc2cc(C)nc3ccc(OC)cc23)c(OC)c1 | 2.94% |
| O=[N+]([O-])c1ccccc1C=NN=c1c2c([nH]c3ccccc13)CCCC2 | 4.32% |
| O=C(c1ccc([N+](=O)[O-])o1)N1CCN(c2nc3c(Cl)cccc3s2)CC1 | 5.45% |
